Source: the antibiotic and cytotoxicity screens of Wong et al. (2023)
The list shows a part of the results.

Columns and labels:
[1] = tested on: HSkMC (human skeletal muscle cells); assay: cytotoxicity call (relative viability < 0.9); settings: 10 µM
[2] = tested on: HepG2; assay: cytotoxicity call (relative viability < 0.9); settings: 10 µM
[3] = tested on: S. aureus RN4220; assay: growth inhibition call (relative growth <= 0.2); settings: 50 µM

COc1ccc(NC(=O)N(C)C[C@@H]2Oc3ccc(NC(=O)Nc4ccc(C(F)(F)F)cc4)cc3CC(=O)N([C@H](C)CO)C[C@@H]2C)cc1
cytotoxicity call [1]: inactive | cytotoxicity call [2]: inactive | growth inhibition call [3]: inactive

C[C@@H]1CN([C@H](C)CO)C(=O)CCCn2nncc2CO[C@H]1CN(C)C(=O)Nc1ccc(C(C)(C)C)cc1
cytotoxicity call [1]: inactive | cytotoxicity call [2]: inactive | growth inhibition call [3]: inactive

C[C@@H]1CN([C@H](C)CO)C(=O)c2cc(NC(=O)Nc3ccc(F)cc3)ccc2O[C@@H]1CN(C)C(=O)Nc1cccc2ccccc12
cytotoxicity call [1]: active | cytotoxicity call [2]: inactive | growth inhibition call [3]: inactive

C[C@@H]1CCCCO[C@H](CN(C)C(=O)NC2CCCCC2)[C@H](C)CN([C@H](C)CO)C(=O)c2cc(NC(=O)CCC(F)(F)F)ccc2O1
cytotoxicity call [1]: inactive | cytotoxicity call [2]: inactive | growth inhibition call [3]: inactive

C[C@H](CO)N1C[C@H](C)[C@@H](CN(C)C(=O)Nc2cccc(C(F)(F)F)c2)OCc2ccccc2-c2ccccc2C1=O
cytotoxicity call [1]: inactive | cytotoxicity call [2]: inactive | growth inhibition call [3]: inactive

COc1ccc(NC(=O)Nc2ccc3c(c2)C(=O)N([C@@H](C)CO)C[C@H](C)[C@H](CN(C)C(=O)CCC(F)(F)F)OCCCC[C@@H](C)O3)cc1
cytotoxicity call [1]: inactive | cytotoxicity call [2]: inactive | growth inhibition call [3]: inactive

C[C@@H]1CN([C@H](C)CO)S(=O)(=O)c2ccc(C#Cc3ccc(F)cc3)cc2O[C@H]1CN(C)C(=O)CN(C)C
cytotoxicity call [1]: inactive | cytotoxicity call [2]: active | growth inhibition call [3]: inactive

COCC(=O)N(C)C[C@H]1Oc2cc(C#Cc3ccccc3)ccc2S(=O)(=O)N([C@H](C)CO)C[C@@H]1C
cytotoxicity call [1]: inactive | cytotoxicity call [2]: inactive | growth inhibition call [3]: inactive

C[C@@H]1CN([C@H](C)CO)C(=O)Cc2cc(NC(=O)CCN3CCOCC3)ccc2O[C@H]1CN(C)C(=O)NC1CCCCC1
cytotoxicity call [1]: inactive | cytotoxicity call [2]: inactive | growth inhibition call [3]: inactive

C[C@@H]1CN([C@H](C)CO)C(=O)c2cc(NC(=O)NC3CCCCC3)ccc2O[C@@H](C)CCCCO[C@H]1CN(C)C(=O)c1ccccc1
cytotoxicity call [1]: inactive | cytotoxicity call [2]: inactive | growth inhibition call [3]: inactive

CC(C)CC#Cc1ccc2c(c1)O[C@@H](CN(C)C(=O)Cc1cccnc1)[C@@H](C)CN([C@H](C)CO)S2(=O)=O
cytotoxicity call [1]: inactive | cytotoxicity call [2]: inactive | growth inhibition call [3]: inactive

COC[C@H]1C[C@H](c2ccc(NC(=O)CCCCCCC(=O)NO)cc2)O[C@H](c2ccc([C@H]3O[C@@H](COC)C[C@H](c4ccc(NC(=O)CCCCCCC(=O)NO)cc4)O3)cc2)O1
cytotoxicity call [1]: inactive | cytotoxicity call [2]: inactive | growth inhibition call [3]: inactive

C[C@H](CO)N1C[C@H](C)[C@@H](CN(C)CC2CC2)Oc2ccc(NS(=O)(=O)c3cn(C)cn3)cc2CC1=O
cytotoxicity call [1]: inactive | cytotoxicity call [2]: inactive | growth inhibition call [3]: inactive

CO[C@H](C(=O)N(C)C[C@H]1OCc2ccccc2-c2c(n(C)c3ccccc23)C(=O)N([C@@H](C)CO)C[C@H]1C)c1ccccc1
cytotoxicity call [1]: inactive | cytotoxicity call [2]: inactive | growth inhibition call [3]: inactive

O=C(Nc1ccc(-c2nc3ccc(NC(=O)c4ccc(NC(=O)c5cccc6ccccc56)cc4)cc3[nH]2)cc1)c1ccc(NC(=O)c2cccc3ccccc23)cc1
cytotoxicity call [1]: inactive | cytotoxicity call [2]: inactive | growth inhibition call [3]: inactive

CC(C)CC#Cc1ccc2c(c1)O[C@H](CN(C)S(=O)(=O)c1cccc(F)c1)[C@@H](C)CN([C@H](C)CO)S2(=O)=O
cytotoxicity call [1]: inactive | cytotoxicity call [2]: inactive | growth inhibition call [3]: inactive

COc1ccccc1-c1ccc2c(c1)O[C@H](CN(C)C(=O)c1cccnc1)[C@H](C)CN([C@@H](C)CO)S2(=O)=O
cytotoxicity call [1]: inactive | cytotoxicity call [2]: inactive | growth inhibition call [3]: inactive

C[C@H]1CN([C@@H](C)CO)C(=O)c2cc(NC(=O)Nc3ccc(C(F)(F)F)cc3)ccc2O[C@H]1CN(C)Cc1ccc2c(c1)OCO2
cytotoxicity call [1]: inactive | cytotoxicity call [2]: active | growth inhibition call [3]: active

C[C@@H]1CCCCO[C@H](CN(C)C(=O)Nc2cccc3ccccc23)[C@H](C)CN([C@H](C)CO)C(=O)c2cc(NS(=O)(=O)c3ccccc3)ccc2O1
cytotoxicity call [1]: inactive | cytotoxicity call [2]: active | growth inhibition call [3]: inactive

C[C@H](CO)N1C[C@H](C)[C@@H](CN(C)S(=O)(=O)c2ccc(F)cc2)Oc2c(NS(=O)(=O)c3ccccc3)cccc2C1=O
cytotoxicity call [1]: inactive | cytotoxicity call [2]: inactive | growth inhibition call [3]: inactive

CC(=O)N[C@H]1CC[C@@H](CCNC(=O)C2CC2)O[C@@H]1CO
cytotoxicity call [1]: inactive | cytotoxicity call [2]: inactive | growth inhibition call [3]: inactive

C[C@H](CO)N1C[C@H](C)[C@H](CN(C)CC2CCCCC2)OCCCC[C@H](C)Oc2ccc(NC(=O)Nc3cccc4ccccc34)cc2C1=O
cytotoxicity call [1]: active | cytotoxicity call [2]: active | growth inhibition call [3]: inactive

COc1ccc(S(=O)(=O)N(C)C[C@H]2OCCCC[C@@H](C)Oc3ccc(NS(C)(=O)=O)cc3C(=O)N([C@@H](C)CO)C[C@H]2C)cc1
cytotoxicity call [1]: inactive | cytotoxicity call [2]: inactive | growth inhibition call [3]: inactive

Cc1noc(C)c1NC(=O)Nc1ccc2c(c1)C(=O)N([C@H](C)CO)C[C@@H](C)[C@@H](CN(C)Cc1ccc(Oc3ccccc3)cc1)O2
cytotoxicity call [1]: inactive | cytotoxicity call [2]: inactive | growth inhibition call [3]: inactive

COc1ccc(NC(=O)N(C)C[C@H]2OCCCC[C@@H](C)Oc3ccc(NC(=O)NC4CCCCC4)cc3C(=O)N([C@H](C)CO)C[C@@H]2C)cc1
cytotoxicity call [1]: inactive | cytotoxicity call [2]: inactive | growth inhibition call [3]: inactive
